Results: PubChem BioAssay AID686979 (National Center for Advancing Translational Sciences (NCATS), 2013)
Out of some 420,000 compounds screened, about 50,000 (12%) were called active. The inconclusive results got no clear call from the source; some entries with a clear call stand among them for comparison. The call rests on the fitted dose curve; in most records, active means well fitted inhibition curve with a large enough effect; inconclusive means small, poorly fitted or top-dose-only effect; inactive means flat fitted curve, though single readings scatter. Potencies of inconclusive entries are left out as doubtful fits.

Assay: qHTS for Inhibitors of human tyrosyl-DNA phosphodiesterase 1 (TDP1): qHTS in cells in presence of CPT; further: nearly all actives have a fitted effect of over 55% in size
Conditions: chicken DT40 Tdp1-/-;hTDP1 cells + 20 nM CPT, ATP luminescence, 48 h; series mostly up to 46.2 µM
How it was run: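 Cell growth measured by CellTiter-Glo luminescence after a minimum 48 h, 37 C compound exposure with 20 nM CPT in Tdp1-knockout DT40 cells stably expressing hTDP1, seeded 400/well; qHTS titration format.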
Potency means the concentration at half of the fitted maximal effect; tags describe the fitted curve by direction and shape.

Row | SMILES | Potency
1 | CCCC1CC(C)(/C(C)=N\NC(N)=S)OC1=O (stereo not drawn) | inactive
2 | Cc1ccccc1NS(=O)(=O)c1cc(C(=O)NCCC2=CCCCC2)ccc1C | inconclusive [inhibitor, single point]
3 | CCOc1ccc2c(c1)C(NC(C)=O)C(=O)N2CCN1CCOCC1 (stereo not drawn) | inconclusive [inhibitor, single point]
4 | CC(C)n1cc(CN2CCN(C)C(CCO)C2)c2ccccc21 (stereo not drawn) | inconclusive [inhibitor, single point]
5 | O=C(Nc1ccc2nccnc2c1)Nc1ccccc1Cl | active: 18.4 µM
6 | Cn1c(=O)n(C)c2cc(/C=N/NC(=S)NCc3ccccc3)ccc21 | inconclusive [inhibitor, single point]
7 | CNC(=S)NCCc1cc2c(OC)ccc(OC)c2[nH]c1=O | inactive
8 | COCCN(Cc1nc2ccccc2c(=O)[nH]1)C(=O)COc1ccccc1-c1ccccc1 | inconclusive [inhibitor, single point]
9 | COc1ccccc1NC(=O)C(=O)/C=C(\O)c1ccccc1 | active: 14.6 µM
10 | COc1cccc(-c2nc(-c3ccc(NC(=O)c4cccs4)cc3)no2)c1 | inconclusive [inhibitor, single point]
11 | CCCCNC(=O)CSc1c2c(nc3ccc(Cl)cc13)CCCC2 | inconclusive [inhibitor, single point]
12 | Cc1cc(O)c(Sc2ccc(Cl)cc2)c(=O)[nH]1 | inconclusive [inhibitor, single point]
13 | S=C(Nc1ccc(Oc2ccccc2)cc1)NC1CCCCC1 | active: 25.9 µM
14 | C=CCN(CC=C)C(=O)COn1nnc2ccc(S(=O)(=O)N3CCOCC3)cc21 | inactive
15 | COC1CCN(C(=O)c2cc(COc3cc(C)ccc3C)on2)CC1 | inconclusive [inhibitor, single point]
16 | COc1cccc2oc3cc(C#CC4(O)CCCCC4)ccc3c(=O)c12 | inconclusive [inhibitor, single point]
17 | CCOC(=O)CSc1nnc(-c2cc(OC)c(OC)c(OC)c2)o1 | inconclusive [inhibitor, full curve, poor fit]
18 | COc1cc(/C=N/Nc2nncc3ccccc23)cc(OC)c1OC | active: 20.6 µM
19 | N#Cc1ccccc1NC(=O)Nc1cccs1 | inactive
20 | N#Cc1ccccc1NC(=O)COC(=O)CN1C(=O)C2CCCCC2C1=O (stereo not drawn) | inconclusive [inhibitor, partial curve]
21 | CC1CCCC(C)N1CCCNC(=O)C(=O)Nc1ccc2nc3n(c(=O)c2c1)CCCCC3 (stereo not drawn) | inconclusive [inhibitor, single point]
22 | COCCNC(=S)NNc1ccc(Cl)c(C(=O)O)c1 | inactive
23 | CNC(=O)c1c(NC(=O)c2cc(=O)c3ccccc3o2)sc2c1CCC2 | inactive
24 | O=[N+]([O-])c1cc(CN2CCOCC2)c2cccnc2c1O | inconclusive [inhibitor, single point]

Row | SMILES | Potency
25 | O=C(c1cccc(Cl)c1Cl)N(Cc1ccco1)Cc1cccs1 | inconclusive [inhibitor, single point]
26 | CC(C)n1cc(/C=C2/SC(=O)N(CC(=O)N3CCCC3)C2=O)c2ccccc21 | inconclusive [inhibitor, partial curve]
27 | Cc1nc(NC(=O)c2ccccc2)sc1C | inactive
28 | CCCOc1ccc(F)cc1-c1cc(C(=O)NCc2cccc(C(F)(F)F)c2)[nH]n1 | active: 20.6 µM
29 | O=[N+]([O-])c1ncccc1OCc1ccc(Br)cc1F | inactive
30 | COc1cccc(-c2cc(C(F)(F)F)nc(NCc3ccc(F)cc3)n2)c1 | inconclusive [inhibitor, single point]
31 | CCCCN(C(=O)NC(=O)Nc1ccccc1C)S(C)(=O)=O | inactive
32 | CSCC[C@H](N)C(=O)NC[C@H]1CC[C@H](C(=O)N[C@@H](Cc2ccccc2)C(=O)O)CC1 | inactive
33 | Cc1nccn1CC(=O)N/N=C/c1c[nH]c2ccccc12 | inactive
34 | CCN(CC(=O)NCc1cccs1)C(=O)C(c1ccccc1)c1ccccc1 | inconclusive [inhibitor, single point]
35 | COc1cccc(-c2nc(S(=O)(=O)c3ccccc3)c(NCc3ccccc3)o2)c1 | inconclusive [inhibitor, single point]
36 | Cn1c(=O)c2sccc2n2c(CCCC(=O)Nc3ccc(F)c(F)c3)nnc12 | inactive
37 | O=c1c2ccccc2nc(CSc2ncnc3nc[nH]c23)n1-c1cccc(C(F)(F)F)c1 | inconclusive [inhibitor, single point]
38 | CCN(CC)S(=O)(=O)c1cc(C(=O)OCC(=O)Nc2ccc(-c3nc4ccc(C)cc4s3)cc2)ccc1F | inconclusive [inhibitor, single point]
39 | COc1ccc(N(CC(=O)Nc2ccc3c(c2)OCCO3)S(=O)(=O)c2c(C)noc2C)cc1 | inconclusive [inhibitor, partial curve]
40 | Cc1cc(=O)[nH]c(NN=C(CC(C)C)CC(C)C)n1 | inactive
41 | CC(C)c1ccc(NC(=O)CCS(=O)(=O)c2ccc(Br)s2)cc1 | active: 18.4 µM
42 | Cc1cccnc1Nc1nc(-c2ccccc2)cs1 | inconclusive [inhibitor, single point]
43 | CC1(C)C2CC=C(/C=N/NC(=O)c3ccccc3Br)C1C2 (stereo not drawn) | inconclusive [inhibitor, single point]
44 | CN(C)c1ccc(C(=S)N2CCCCCC2)cc1 | inconclusive [inhibitor, partial curve]
45 | Cc1c(C(=O)Nc2ccc(F)cc2F)nnn1-c1ccccc1Br | active: 10.3 µM
46 | O=C(Nc1nc2c(s1)CCc1ccccc1-2)c1cccs1 | inconclusive [inhibitor, single point]
47 | Cc1ccc(/C=c2/sc3nnc(-c4ccccc4Cl)n3c2=O)o1 | inconclusive [inhibitor, single point]
48 | COc1cc(NC(=O)CSc2ccc(-c3ccco3)nn2)cc(OC)c1 | inconclusive [inhibitor, single point]
